# Experimental data taken from the supplement of paper PMC3334620.
# The full ranking holds about 33,000 sequences; the median of “E-score (-0.5 to 0.5)” is about -0.036, and the highest 2% start at about 0.37. This is one part of the list.
# Molecular target: T1, Yer064c (UniProt P40041)
# T1 sequence: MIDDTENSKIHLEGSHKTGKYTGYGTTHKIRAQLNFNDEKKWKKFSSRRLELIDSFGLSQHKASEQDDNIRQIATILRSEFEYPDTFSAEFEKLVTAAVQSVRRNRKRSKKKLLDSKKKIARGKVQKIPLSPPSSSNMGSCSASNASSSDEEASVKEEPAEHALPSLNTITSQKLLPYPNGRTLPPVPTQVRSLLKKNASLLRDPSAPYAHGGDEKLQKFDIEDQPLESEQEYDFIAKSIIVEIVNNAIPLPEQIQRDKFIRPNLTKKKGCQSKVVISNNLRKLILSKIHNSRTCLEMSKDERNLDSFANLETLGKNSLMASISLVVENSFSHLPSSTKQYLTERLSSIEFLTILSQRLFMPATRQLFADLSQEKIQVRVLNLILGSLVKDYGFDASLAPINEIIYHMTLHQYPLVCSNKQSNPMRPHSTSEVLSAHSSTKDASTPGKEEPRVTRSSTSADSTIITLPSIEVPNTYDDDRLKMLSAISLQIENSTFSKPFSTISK
# Test: PBM E-score (8-mer binding enrichment) (E-score (-0.5 to 0.5)); higher = stronger / more preferred TF binding; most listed sequences are background and not binding sites
# Details: protein concentration: 200 nM; construct: GST-full length
# Procedure, shortened: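 Detection of bound protein used fluorescent anti-GST, with scans normalised by masliner. The proteins were GST-tagged yeast transcription factors applied at about 100-200 nM to universal all-10-mer Agilent arrays made double-stranded by primer extension. Each ungapped eight-base word, pooled with its reverse complement, was scored with an E-score from the Universal PBM Analysis Suite.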
row,Sequence,PBM E-score
1,ACAGAAGC,-0.0224
2,GCCATGGC,-0.288
3,CTCCCAGA,-0.235
4,ATACGAAC,-0.00917
5,GAGGGGGA,-0.285
6,AGCACCCA,-0.143
7,GCCTGGGA,-0.343
8,ACTGATCG,0.11
9,ACGGCAGA,-0.293
10,CATCGAAC,-0.125
11,AAACTACA,0.0205
12,AACTTAGT,0.283
13,ATCATGTG,0.231
14,CGGGATAC,-0.137
15,ATAATGCG,-0.12
16,GGCTCCCC,-0.199
17,AATGAGAA,0.00576
18,CCTGTACC,-0.204
19,CCGACAAC,-0.105
20,CCTGTCAC,0.0707
21,AACCGTTC,-0.168
22,AGGTGGGC,-0.201

row,Sequence,PBM E-score
1,ACCCACCT,-0.0352
2,AGTCGAAT,0.141
3,CCCGAGGG,-0.0969
4,GTGAAGTA,-0.0979
5,ATTTCGTC,-0.0276
6,TATAACAA,0.0933
7,CGGGGAGC,-0.176
8,ATTGCACA,-0.0544
9,CGCACGAC,0.0323
10,GAGAAGTA,0.0142
11,ATAAGCGA,-0.0152
12,ACGCACAC,0.155
13,AGTGTGAT,0.299
14,CGTCACAG,-0.031
15,ATGCCCAA,-0.318
16,ACGCGATC,-0.04
17,GGCTTCAC,-0.226
18,GCCGATGA,0.217
19,CGAGGACA,-0.147
20,AGTCTGAT,0.302
21,GAGACACC,0.266
22,CATATAGA,0.193

row,Sequence,PBM E-score
1,ATCTGGTG,-0.0282
2,CTAAACGA,0.0631
3,CTTCTCGA,-0.124
4,GACCTAAC,0.0736
5,AAGTGTGT,0.166
6,GGAAAGGA,0.0585
7,AACGCCGG,-0.229
8,CGTCTATA,-0.12
9,ACAGTAGT,0.207
10,GCGTAGAA,-0.12
11,CACGACCC,-0.158
12,ACTGTGTG,0.0826
13,ATTTTTAC,-0.0508
14,AACCTAGT,0.0495
15,AGCTGCTG,0.0996
16,ATGTTGTA,-0.0488
17,CCGCCGGC,-0.0629
18,CCGTCAGA,-0.151
19,ACACAAAA,0.0955
20,ACTGAAAC,0.172
21,CTTTCCCC,-0.153
22,ATCTGCTA,0.00228

row,Sequence,PBM E-score
1,CTCGCGCA,-0.0489
2,ACACGCCT,-0.172
3,AATGCGCG,-0.0908
4,GTGGTAGA,-0.194
5,CAAGGCGG,-0.0568
6,AGAAGCTA,0.131
7,ACGTTGAC,0.134
8,GTCCCCAA,-0.133
9,GCAGGTAA,-0.106
10,AATGGCAC,-0.231
11,ATACCCAA,0.012
12,CCGTCGAC,-0.0403
13,CCCCAGGA,0.0256
14,GCTGATAC,-0.0879
15,AATGACCG,-0.203
16,ACCGGTGG,-0.104
17,GGACTCAC,0.43
18,CCACAGAC,-0.0479
19,GAGGTCAC,0.0361
20,CGACCCCC,-0.423
21,ATGAACCG,-0.0969
22,ACGAAAGC,-0.156

row,Sequence,PBM E-score
1,AATCGTCG,0.118
2,ACCTTAAG,0.0801
3,CCCCGAAA,-0.236
4,TAATCACA,0.419
5,ACTGTATA,0.0459
6,CTAGCGTC,-0.219
7,AGTGATCG,-0.108
8,ATGAACGG,-0.0903
9,GTATAGAA,-0.0318
10,ACCTCAAC,0.111
11,CCATCAGA,-0.145
12,CAAAGAAC,-0.0891
13,CCCTCAAG,-0.0461
14,AGGATCAC,-0.0392
15,CTGACGTA,-0.148
16,CTCGGTGA,0.137
17,ACCAAACA,0.00432
18,CCCTGACC,-0.0172
19,CACCACAG,-0.0545
20,GAGAGATA,-0.0127
21,CCTACAAG,-0.114
22,ATGATAGA,-0.106
